{
  "source": "patent US20260098080A1",
  "about": "“A MODIFIED PROTEIN SCAFFOLD AND USE THEREOF” (EVOLVERITAS BIOTECHNOLÓGIAI KORLÁTOLT FELELOSSÉGU TÁRSASÁG, priority 2022, published 2026)",
  "key": {"[1]": {"system": "complement lectin pathway", "experiment": "In vivo lectin pathway inhibition in rats, residual lectin pathway activity of serum samples ex vivo (C4b deposition)", "conditions": "rat, 4.5 μmol/kg slow iv bolus only", "method": "Two such campaigns were conducted. In the first campaign EVO21 (SEQ ID NO: 12), EVO24 (SEQ ID NO: 15), EVO23 (SEQ ID NO: 3) and EVO214 (SEQ ID NO: 8) of the present invention were tested in comparison to EVO2 (SEQ ID NO: 2). In the second campaign, an Fc-fusion form of EVO24 referred to as EVO24L (SEQ ID NO: 114) was tested. The description below under F.9.1., details the general procedure with specific data corresponding to the first campaign. Specific differences in the second campaign are explained in section F.9.2.\nHealthy male Wistar-Hanover rats (4 animals/test protein) were anesthetized by intraperitoneal (ip) injection of pentobarbital sodium and repeated doses to maintain anaesthesia. A heating pad assured maintenance of body temperature. The ECG of the animals (leads I-II-III) was monitored during the experiments. In the event of spontaneous breathing cessation or a significant reduction in heart rate or cardiac arrhythmias, the animals were intubated per os and connected to a rodent ventilator (Ugo Basile, Model 7025, Varese, Italy) for artificial ventilation at a rate and a stroke volume according to the manufacturer's recommendations. […]\nActivity of the complement lectin pathway activity was assessed by activation of the serum samples on a mannan-coated surface and measurement of C4b deposition by ELISA measurement. […]"}, "[2]": {"experiment": "Stability in vehicle buffer at 4° C. for 5 weeks, by lectin pathway IC50 of stored vs fresh samples", "type": "physicochemical", "conditions": "stored at 4° C.; no significant difference of IC50 vs fresh sample", "method": "For testing the stability of these four proteins, lyophilized samples from the same batch were compared. One sample was dissolved in 1.4% sodium bicarbonate buffer and stored at 4° C. for 5 weeks. The other aliquot sample was freshly dissolved into vehicle buffer. Lectin pathway inhibitory potency of these samples was assessed at the same time on the same plate as described in F.5.1.\nStability of EVO24L (SEQ ID NO: 114) was tested the same way by determining the IC50 values of a freshly prepared EVO24L samples and EVO24L samples stored at 4° C. for 5 weeks."}},
  "data": [
    {"molecule": "EVO24L: chimeric protein containing EVO24 fused to an IgG1-type Fc domain that forms stable homodimers, non-glycosylated, produced in E. coli (protein, homodimer) GSKPDFCFLENDPGPCRALKRRYFYNNQTKQCERFYYGGCLGNMNNFETLEECKNICEDGGTGGGSGSSSGS[human IgG1 Fc with changes omitted]", "values": [
      {"measurement": "lectin pathway inhibition", "setting": "[1]; 4-hour time point", "result": "about 95%"},
      {"measurement": "lectin pathway inhibition", "setting": "[1]; 5 minutes", "result": "over 98%"},
      {"measurement": "stability in vehicle buffer", "setting": "[2]", "result": "at least 5 weeks"}
    ]}
  ]
}
